Test results: US20160264680A1 (INSERM INSTITUT NATIONAL DE LA SANTE ET DE LA RECHERCHE …, published 2016)
Like-named read-outs stand apart in the source and are kept apart here. Each block holds one binder with its values, some of them ahead of it.

Assays:
[1] = biological target: T1, recombinant soluble human KIT extracellular domain (KIT-ECD), C-terminal 6His tag (human, UniProt P10721 fragment, biotinylated in the yeast display assays (sites not given)); assay: ELISA, bivalent scFv-Fc on monovalent KIT-ECD adsorbed on plastic; apparent Kd from the EC50
T1 construct: range 26-509; Made in High Five insect cells with a baculovirus, purified on Ni-NTA; major protein of 60 kD; Monovalent; also called c-KIT ECD; recombinant KIT
T1 sequence (P10721 other isoform, or with tags, fused parts or gaps limits assumed): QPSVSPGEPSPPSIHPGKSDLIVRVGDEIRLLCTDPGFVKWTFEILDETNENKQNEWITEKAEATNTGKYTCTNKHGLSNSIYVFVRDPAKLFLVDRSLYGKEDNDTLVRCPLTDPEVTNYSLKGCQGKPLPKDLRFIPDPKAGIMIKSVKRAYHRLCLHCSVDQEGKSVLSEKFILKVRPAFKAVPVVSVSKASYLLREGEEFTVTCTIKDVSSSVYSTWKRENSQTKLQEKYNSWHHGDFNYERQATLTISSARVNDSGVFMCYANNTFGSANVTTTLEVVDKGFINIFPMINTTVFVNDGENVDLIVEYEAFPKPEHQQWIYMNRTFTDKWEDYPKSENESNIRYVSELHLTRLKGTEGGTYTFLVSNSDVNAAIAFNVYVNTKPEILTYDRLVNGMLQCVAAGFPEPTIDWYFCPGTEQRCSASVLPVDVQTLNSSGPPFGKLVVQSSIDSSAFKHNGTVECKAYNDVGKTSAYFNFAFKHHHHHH

[2] = biological target: T1, recombinant soluble human KIT …; assay: ELISA, scFv-Fc on coated KIT-ECD
[3] = biological target: T1, recombinant soluble human KIT …; assay: SPR (Biacore 3000), scFv-Fc captured by anti-human Fc, KIT-ECD 20 to 330 nM as analyte
[4] = biological target: T1, recombinant soluble human KIT …; assay: SPR (BIACORE 3000), scFv-Fc captured on anti-human IgG (Fc), KIT-ECD as analyte, 1:1 Langmuir fit [panel B]
[5] = biological target: T1, recombinant soluble human KIT …; assay: SPR (Biacore 3000), scFv-Fc captured by anti-human Fc, KIT-ECD as analyte, Langmuir 1:1 fit; intrinsic affinity
[6] = biological target: T1, recombinant soluble human KIT …; assay: ELISA, scFv-Fc on coated KIT-ECD; remark: listed apart in the source

Kd [1]: 2.18 nM
EC50 [2]: 0.24 µg/mL
koff [3]: 0.00521 s⁻¹
Ka [4]: 1.5e+07 M⁻¹
Kd [4]: 66.7 nM
Kd [5]: 66 nM
B1: 3G1-Fc (bivalent scFv-Fc of anti-KIT scFv 3G1) (Fc fusion, human)
chain: MAQVQLVESWGGVAQPGRSLRLSCAASGFTFSSFAMHWVRQAPGKGLEWVAVTSYDGSNEYYADSVKGRFTISRDNSKNTLYLQMNSLRAEDTAVYYCAKAMVRGVTFGDLDYWGQGTLVTVSSGGGGSGGGGSGGGGSSELTQDPAVSVALGQTVRITCQGDSLRSYYASWYQQKPEQAPVLVIYGENSRPSGIPDRFSGSSSGNTASLTITGAQAEDEADYYCNSRDSSGTHLRVFGGGTKLTVLG[human IgG1 Fc not spelt out]
notes: domain: hinge domain and the 2 constant domains; also called 3G1 scFv-Fc; 3G1-scFv-Fc

EC50 [6]: 0.6 nM
Kd [1]: 0.61 nM
EC50 [2]: 0.067 µg/mL
koff [3]: 0.00563 s⁻¹
Ka [4]: 5.79e+06 M⁻¹
Kd [5]: 173 nM
B2: 2D1-Fc (bivalent scFv-Fc of anti-KIT scFv 2D1) (Fc fusion, human)
chain: MAQVKLQESGGGLVQPGGSLRLSCAASGFTFDSYAMSWVRQAPGKGLEWVSYITSSSSTIYYVDSVKGRFTISRDNAKNSLYLQMNSLRDEDTAVYYCARLRNSEGYWYFDLWGRGTLVTVSSGGGGSGGGGSGGGGSQSALTQDPAVSVALGQTVRITCQGDSLRSYFASWYQQKPGQAPLLVMYGQNIRPSGIPDRFSGSSSGNSASLTITGAQAEDEADYYCNSRDSSYNHWVFGGGTKLTVLG[human IgG1 Fc not spelt out]
notes: domain: hinge domain and the 2 constant domains; also called 2D1 scFv-Fc; 2D1-scFv-Fc
